Whole data set: some 33,000 sequences, median “E-score (-0.5 to 0.5)” near -0.012, cut for the highest 2% near 0.27. The list shows a part of the results.
Target: T1, Vhr1 (UniProt P40522)
T1 sequence: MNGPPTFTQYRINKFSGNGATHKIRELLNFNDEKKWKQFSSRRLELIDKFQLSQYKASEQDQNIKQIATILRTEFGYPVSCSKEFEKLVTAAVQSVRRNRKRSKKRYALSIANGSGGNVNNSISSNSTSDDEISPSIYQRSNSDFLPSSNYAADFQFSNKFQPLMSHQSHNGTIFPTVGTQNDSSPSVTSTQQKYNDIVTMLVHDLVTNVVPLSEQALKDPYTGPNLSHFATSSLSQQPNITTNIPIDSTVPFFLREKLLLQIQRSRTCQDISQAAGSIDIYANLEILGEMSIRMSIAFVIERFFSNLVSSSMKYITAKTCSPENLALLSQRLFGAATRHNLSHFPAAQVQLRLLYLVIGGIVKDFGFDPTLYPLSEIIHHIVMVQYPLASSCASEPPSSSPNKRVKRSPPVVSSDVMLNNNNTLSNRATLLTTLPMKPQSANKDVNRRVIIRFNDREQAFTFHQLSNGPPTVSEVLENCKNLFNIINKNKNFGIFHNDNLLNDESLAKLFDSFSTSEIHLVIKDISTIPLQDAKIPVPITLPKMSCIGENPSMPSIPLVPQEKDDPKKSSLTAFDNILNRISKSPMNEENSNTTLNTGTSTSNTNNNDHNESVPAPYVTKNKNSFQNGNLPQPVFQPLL
Experiment: PBM E-score (8-mer binding enrichment) (E-score (-0.5 to 0.5)); higher = stronger / more preferred TF binding; most listed sequences are background and not binding sites
Conditions: protein concentration: 200 nM; construct: GST-full length
Procedure, shortened: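 Masliner-normalised scans of fluorescent anti-GST signal were the basis for scoring. That signal came from GST-tagged yeast transcription factors applied at about 100-200 nM to double-stranded universal all-10-mer Agilent arrays on fresh or once-stripped slides. Each ungapped eight-base word, pooled with its reverse complement, received an E-score from the Universal PBM Analysis Suite.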

| Sequence | PBM E-score |
| --- | --- |
| AGATGGTG | 0.0635 |
| CCGGCGCG | 0.0587 |
| TATGTAAA | 0.0903 |
| ATCATCAG | 0.0874 |
| AGTATCAA | 0.184 |
| CCGCTTCG | -0.142 |
| CGGTTGGA | -0.184 |
| AACAAGCA | 0.0363 |
| CAGAAGCG | 0.028 |
| CGTGCGGC | 0.0491 |
| GTTTTAAA | -0.136 |
| GCGGGTGA | 0.293 |
| GTGTCCAA | 0.0322 |
| GTAATTAC | 0.119 |
| ACCGTAGC | -0.0527 |
| ACCTCATG | -0.0837 |
| GCCGCAGC | 0.0307 |
| GGAGAATA | 0.0931 |
| CAGGGAGG | -0.00313 |
| CCACGACA | 0.0244 |
| ACGCTGGA | 0.106 |
| CTGTTATC | -0.071 |
| GATATTTA | -0.0727 |
| CGTCAACC | -0.12 |
| TAGTTGCA | 0.0409 |

| Sequence | PBM E-score |
| --- | --- |
| CTGCAGTA | -0.0493 |
| TCTAAAAA | -0.234 |
| ACCTTTTC | -0.166 |
| GTTTGACA | -0.168 |
| CCCGCCGC | 0.36 |
| TGAAAGAA | -0.248 |
| ATTTGCGA | -0.0446 |
| CCTCCACG | -0.149 |
| AAGGGGAG | -0.0987 |
| CGGGTAGA | -0.0495 |
| CATCACCA | 0.167 |
| TACGACAA | 0.17 |
| CGCGTACC | -0.00725 |
| ACCACTCC | 0.152 |
| AGAAGATG | -0.183 |
| ACAGGTAT | 0.137 |
| AGCCTTTA | -0.169 |
| GTGCGAAC | -0.037 |
| ATCGCGGA | 0.00117 |
| CTACAGTC | -0.0114 |
| ACATAACG | -0.0442 |
| CCCCGTGC | -0.00049 |
| CCTTTATA | -0.307 |
| ACGCACGT | -0.13 |
| ACGATAGA | -0.136 |

| Sequence | PBM E-score |
| --- | --- |
| AGATCCGG | -0.166 |
| CCATGTTC | 0.0255 |
| AAAAGAAT | -0.113 |
| GACGCGAA | 0.0106 |
| AACTCCTC | -0.268 |
| GCGGCATA | -0.0994 |
| GTTCAAGA | -0.143 |
| GCCTACCC | -0.1 |
| ATCGGAAA | -0.12 |
| GCCCTACC | 0.0565 |
| CCGCCGTC | 0.132 |
| ATGGAGCA | 0.0442 |
| ATGGTGGG | 0.0211 |
| CGCGCAGA | 0.205 |
| TACTTACA | 0.0616 |
| TAATGAAA | -0.276 |
| CAGGCGAG | -0.119 |
| AGGACATC | -0.108 |
| ACCAGTGA | 0.197 |
| GAATTGAA | -0.123 |
| CTAGCCTC | -0.0849 |
| AATCGGAC | -0.152 |
| CCACTGTA | 0.0971 |
| ACTGAGCG | -0.127 |
| GGCGTGAA | -0.169 |

| Sequence | PBM E-score |
| --- | --- |
| CAGCGGCA | -0.021 |
| GCGTATCA | 0.175 |
| AAGTCCAC | -0.224 |
| TGACAGCA | 0.127 |
| ACGACGTG | 0.114 |
| CACACTAG | -0.0647 |
| GGCTACAA | 0.0795 |
| ACGAATGA | 0.153 |
| CGACTTGA | -0.0845 |
| GAACTCAA | 0.0249 |
| CTGTGCTC | 0.15 |
| AATTTTGT | -0.11 |
| AGCACGAC | 0.0474 |
| AATTCAGC | -0.0451 |
| ATCCTGGC | -0.11 |
| CACAGTCC | 0.0437 |
| GCACTAAC | 0.0497 |
| GAAAGGGA | -0.147 |
| AGCGGCTG | -0.111 |
| AACTCTCG | -0.0555 |
| TGTGCTAA | 0.167 |
| GGACTTTA | -0.174 |
| AACCTTAG | -0.0607 |
| GGACCCGA | -0.0237 |
| GTGACAAA | -0.0829 |

| Sequence | PBM E-score |
| --- | --- |
| TAAATACA | -0.0291 |
| TCGTGAAA | -0.266 |
| ACCAACGG | 0.023 |
| AGCGGTTG | 0.111 |
| CGGCAGAC | -0.0221 |
| AGCAGGGG | -0.222 |
| ATGGTGCC | -0.261 |
| CCCCGCCA | 0.398 |
| AGTATGCG | -0.0241 |
| CAGTTATG | 0.16 |
| AGGCGTCG | 0.0371 |
| AACGTGCT | -0.0508 |
| AAATAATA | 0.2 |
| GCACCCGA | 0.116 |
| AGACTTAT | -0.0344 |
| ACATGTAT | 0.246 |
| CGCCCTCA | -0.16 |
| CGCAAGCA | 0.121 |
| AGATGACC | -0.0573 |
| ATGAAGGC | -0.0695 |
| CTTAACCA | 0.0943 |
| TAAACGAA | -0.204 |
| ACGCGAAT | 0.077 |
| GGACTAGA | -0.138 |
| AACTTCTT | -0.182 |

| Sequence | PBM E-score |
| --- | --- |
| CATGTGAC | 0.198 |
| AACATAGA | 0.0485 |
| ACCGCAGG | 0.0293 |
| AACAATCT | -0.00162 |
| AAGGTAAA | -0.196 |
| CGCGTCGC | -0.0637 |
| ACCATTAT | 0.169 |
| TGACATAA | 0.0509 |
| CACGATGG | -0.0474 |
| AATGCGAG | -0.0244 |
| GCACCTAA | 0.0537 |
| AGTCGGTG | 0.246 |
| TATTAACA | 0.105 |
| AGAAGTGG | -0.0889 |
| ATAGGTCA | 0.096 |
| AGGGGGTG | -0.11 |
| CGCCTGAA | 0.0964 |
| GAATTTAC | -0.127 |
| ACAATGAC | 0.209 |
| CTATTTCC | -0.081 |
| CAGACTGA | 0.126 |
| CACACCCC | 0.0769 |
| ACATACGT | -0.0684 |
| AATAACTG | 0.0575 |
| GCTCGAGC | 0.0705 |

| Sequence | PBM E-score |
| --- | --- |
| ACAGGCTG | 0.0289 |
| ACGGGAAA | -0.174 |
| GACAAGGC | -0.128 |
| GCCTTCGC | 0.096 |
| CGTGCGAA | 0.0076 |
| CCATATCC | 0.0679 |
| AGGGCGAT | -0.0273 |
| TATATACA | 0.162 |
| ACCCGGCG | -0.0379 |
| AGCAGACT | -0.166 |
| ACCCAAAA | -0.127 |
| CAAGGCAA | -0.128 |
| GGTACGTA | 0.0346 |
| AACGGACA | -0.0146 |
| CCTAATGC | -0.14 |
| ACGGAGCC | -0.0806 |
| AGGCGTAC | -0.0151 |
| ACTGACTG | 0.0572 |
| TAATACTA | 0.114 |
| AATTTTTC | -0.131 |
| CGCACTCC | -0.15 |
| ACCCGAAT | 0.0408 |
| CTGATAAC | -0.00673 |
| ATCTAAAA | 0.0219 |
| CGTAAGGC | -0.167 |

| Sequence | PBM E-score |
| --- | --- |
| GAACCGCC | 0.0756 |
| TCCCCGGA | 0.0112 |
| CTAGTTTC | 0.177 |
| CGTTCGCC | -0.0877 |
| CAGGGGAA | 0.00812 |
| ATCCGCAC | 0.201 |
| CACAATCA | 0.143 |
| GGATACAC | 0.15 |
| AGACGCAT | -0.0874 |
| CCATAAAG | -0.142 |
| ATCTTGCC | -0.0221 |
| GACTTAGC | -0.19 |
| ACTTGTAG | -0.0865 |
| ACCTCGGC | -0.00019 |
| ACAGTGCC | 0.0284 |
| TCCTCGAA | -0.165 |
| GAAAATTC | -0.274 |
| TAGCTTGA | -0.119 |
| TAGTGCGA | 0.092 |
| CCCTCGCG | -0.0645 |
| GACGAAGA | -0.0356 |
| ATAATTGA | 0.106 |
| CGTGTAAC | -0.042 |
| ATCCCTCC | -0.0597 |
| CGGTATCC | 0.062 |

| Sequence | PBM E-score |
| --- | --- |
| ACCACACT | 0.0172 |
| TTACCCAA | -0.0451 |
| CTGAGGGC | -0.236 |
| ATAAATAT | 0.131 |
| CGGTCGCC | 0.0397 |
| CTACACCC | -0.0346 |
| GCGGCCAC | 0.0847 |
| TCGCACCA | 0.219 |
| GAGATTAC | 0.2 |
| CGCACGGA | 0.0396 |
| AATTCACT | -0.0741 |
| AGCGCGCG | 0.0844 |
| AAACCTCG | -0.166 |
| ACAGTCCT | 0.025 |
| ATCCTCAC | 0.159 |
| ATTGAAGA | -0.118 |
| ATTATGCC | 0.0893 |
| CAGACATG | 0.0554 |
| AGCTACCC | -0.0112 |

From the supplement of paper PMC3334620
